± gives the standard deviation of the averaged measurements. The list shows a part of the results.
System: PfAP2-LT AP2 domain (GST-tagged)
Test: gcPBM binding intensity (ln(normalized median fluorescence intensity)); higher = stronger DNA binding
Summary of the method: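 Binding of GST-tagged P. falciparum DNA-binding domains, expressed in E. coli and used at about 25 μg on average, was carried out for 1 h in 1× PBS containing 1% milk, 0.2 mg/ml BSA, 0.5% salmon testes DNA and 0.03% Triton X-100. The target was an Agilent 4 × 180k array of primer-extended double-stranded 36-bp intergenic genomic probes plus negative controls, read with Alexa488 anti-GST antibody at 488 nm. Binding intensity is the highest Masliner-normalised natural-log median intensity across replicate spots of either probe orientation.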

| Sequence | gcPBM binding intensity (ln) |
| --- | --- |
| TAGGTATATAAATAATGTACATATAAACTATATAGA [XGTACX_site2597] | 8.9 ± 0.54 |
| ATGTTGAGTATATATACACACATACAGATATATATA [CACACA_site4967] | 9.18 ± 0.35 |
| ATACATTCTTATTACTGTACAGGGTTAATTATTTGT [XGTACX_site948] | 9.02 ± 0.49 |
| TGGAGATAAAATAAAACACACACATATATATATATA [CACACA_site8683] | 9.945 ± 0.035 |
| ATTATTTTATTTATTGGTACGTAATTGTAGATTTCT [XGTACX_site3697] | 8.78 ± 0.4 |
| GCAAAAACAAACGTCACACATACAAAGGCCGTGTAA [CACACA_site6043] | 9.07 ± 0.47 |
| TTCCAACCAATACAAACATGCATTTGAAAAAATGTA [TGCATGCA_site119] | 8.6 ± 0.46 |
| TTCGCCCTAAATAGAGTGCATTATATATATTAATAT | 8.74 ± 0.4 |
| ATAAAATAAATATAACCACACACGAAAGAGAGAGAA [CACACA_site9075] | 9.41 ± 0.35 |
| TTTTTAGGAAAGGCGGCACACATTTATATATTTATT [CACACA_site3672] | 8.98 ± 0.4 |
| AGCAGTCAGCAGGACAGTACACAGTAGCCAGTAACT [XGTACX_site1999] | 9.08 ± 0.57 |
| TTTATTTTATCATTTGCACACGCACGCCCACATAAA [CACACA_site353] | 9.39 ± 0.42 |
| CAAAATATATTGAATTGTACATAAAAATAAAAATTA [XGTACX_site4193] | 8.63 ± 0.48 |
| TTGTTTTTAGTTTATACACACCATATTAAAATAATG [CACACA_site5675] | 8.77 ± 0.42 |
| AATAAAATATACTATTGTACATATGGAACTACTTGA [XGTACX_site8928] | 8.76 ± 0.48 |
| ATTTATTATATATAGTGTACGTTCTTAATTATAATT [XGTACX_site7480] | 8.85 ± 0.42 |
| TAAAATATATTGCCAGTGCATAATATATGTAATTAT | 8.71 ± 0.41 |
| TGTATAAACCCACGTACACACACTAAGTATATCCAA [CACACA_site1605] | 9.25 ± 0.38 |
| TTTTTTAAATATTAAAAATGGGATCTTATAACATAT [GTGCAC_negctrl_site666] | 8.21 ± 0.47 |
| TAAACAAATAAATAAACACACAATATAGGTATATAT [CACACA_site7739] | 9.01 ± 0.53 |
| AACTAATAAAAAAAAAAAACATTAAACAGGACAAAT [XGTACX_negctrl_site287] | 8.86 ± 0.54 |
| TTATTTTTAACGTACGCACACATATAAATATATTTA [CACACA_site1976] | 8.97 ± 0.35 |
| TTGTATTACATAAATGTTCTTTATTATTTGATAAAA [CACACA_negctrl_site903] | 8.35 ± 0.45 |
| TATATAATATATTAATGTACTTAAAATATATTCTAT [XGTACX_site1235] | 8.51 ± 0.35 |
| GTGTAGTTAAAAAAAAGTACAGATTTTTTTTTTTTT [XGTACX_site849] | 8.59 ± 0.46 |
